What is called TGI is the concentration giving total growth inhibition. What is called GI50 is the concentration at which growth is held to half of that of the control.

Molecules are shown by their SMILES. “And” between values parts separate entries of the source, which are not always exact repeats. Equal values may be shown once.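 Following 48 hours of exposure in 96-well plates, responses at five concentrations were used to interpolate endpoints linearly. Abbreviation: GI50, concentration required for 50% inhibition of growth. TGI: concentration producing complete growth inhibition.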

The source of these data is PubChem BioAssay (NCI).

The experiment deals with NCI-H322M lung. As to the kind of experiment: DTP human tumour cell line panel, 48 h.
The compound `CN(C(=O)C12C3C4C1C1C2C3C41C(N)=O)C(C)(C)C` (centres undefined) had a TGI of more than 100 µM.
`CCOC(=O)c1nc2ccc(C(F)(F)F)cc2nc1Oc1cc(OC)c(OC)c(OC)c1` gave a TGI of more than 100 µM.
On the same count and under the same terms, with `O=C1C(c2ccccc2)=C(O)c2cccc3cccc1c23` the figure was more than 100 µM; with `O=C1C(Cl)=C(OCCCl)C(=O)c2c(O)ccc(O)c21`, 29.6 µM; with `O=C(O)CC[C@H](NC(=O)c1ccc(-n2nc3ccc(O)cc3nc2=O)cc1)C(=O)O`, more than 100 µM.
`O=S(Nc1ccccc1)c1ccc(N2CCOCC2)cc1` (centres undefined) displayed a concentration for total growth inhibition (TGI) of more than 100 µM.
For the compound `COc1ccc(C/C(C)=C(/c2ccc(OCCN3CCCCC3)cc2)c2ccc(OC(=O)NCc3ccccc3)cc2)cc1`, the GI50 is 0.43 µM and the concentration for total growth inhibition (TGI) came out at 0.83 µM.
As to `C[n+]1cccc2c(=O)c3ccccc3oc21`, the total growth inhibition concentration (TGI) is more than 100 µM.
Same read-out and setting: the value for `C=C/C(C)=C\CC1[C@](C)(O)CC[C@H]2C(C)(C)C(=O)CC[C@]12C` (some centres undefined) was more than 100 µM.
Take `CC1=C(c2cccc(O)c2)[C@H](c2ccc(OCCN3CC(CF)C3)cc2)Oc2ccc(O)cc21`: the GI50 was 11.7 µM and the TGI came out at 23.9 µM.
The compound `CC(=O)NCCC1CN(C(=O)/C=C/I)c2ccccc21` (centres undefined) had a concentration for total growth inhibition (TGI) of 27.4 µM.
Take `CC[C@@]1(O)C(=O)OCc2c1cc1n(c2=O)Cc2cc3cc4c(cc3nc2-1)OCO4`: the TGI turned out to be 1.12 µM.
The same measure, in the same setting: the value for `OC1(c2ccccc2)CCN(Cc2c[nH]c3ccccc23)CC1` was more than 100 µM; that for `C/C(O)=C(/C=N/C(=S)Nc1ccc(S(N)(=O)=O)cc1)C(=O)Nc1ccccc1C` was more than 100 µM.
Same read-out and setting: with `Cc1ccc(OCC2OC(n3cnc4nc(N)nc(Cl)c43)CC2Oc2ccc(C)cc2)cc1` (centres undefined) the figure was 53.9 µM.
In turn, `O=C1Nc2ccc(Br)cc2C1=Nc1cccnc1` showed a TGI of more than 100 µM.
The compound `CCCCOC(=O)C(NC(C(=O)OCCCC)c1cc(C(C)(C)C)c(O)c(C(C)(C)C)c1)c1cc(C(C)(C)C)c(O)c(C(C)(C)C)c1` (centres undefined) showed a TGI of more than 100 µM.
Same read-out and setting: with `CCOC(=O)CC[C@H](NC(=O)c1nc[nH]c1[N+](=O)[O-])C(=O)OCC` the figure was more than 100 µM; with `CC(CN(C)C)/C(=N\Nc1ccccc1)c1ccccc1` (centres undefined), more than 100 µM; with `O=c1[nH]nc(-c2ccccc2)n1/N=C\c1ccccc1`, more than 100 µM.
On the same count and under the same terms, the value for `NC(=O)c1cccc([N+](=O)[O-])c1` was more than 100 µM.
As for `COc1cc(C(=O)c2c(-c3ccccc3)oc3c(OC)cccc23)cc(OC)c1OC`, the GI50 was 0.135 µM and the concentration for total growth inhibition (TGI) was more than 100 µM.
For `Cc1ccc(S(=O)(=O)c2c(COC(=O)c3cccc(C)c3)c(-c3ccccc3)nn2C)cc1`, in that order: more than 100 µM and more than 100 µM.
As to `CCOC(=O)/C(C1=NCCN1)=C(\O)c1ccccc1`, the TGI is more than 100 µM.
With `CC(C)(C)C(=O)OCC1C(=O)OCC1C(=O)N1Cc2cc3ccccc3nc2C1` (centres undefined), the total growth inhibition concentration (TGI) was determined as 31.7 µM.
On the same count and under the same terms, with `C=C/C=C/NC(=O)OCc1ccccc1` the figure was more than 100 µM; with `Cc1csc(NC23CC4CC(CC(C4)C2)C3)[n+]1C(P(=O)([O-])O)P(=O)(O)O` (centres undefined), more than 100 µM.
On to `CC1(C)C2CCC13C(=O)C1OC3(C2)C2C(=O)c3ccccc3C(=O)C12` (centres undefined), for which the GI50 was more than 100 µM and the concentration for total growth inhibition (TGI) is more than 100 µM.
The compound `COc1cc2ccnc3c2c(c1OC)-c1coc(SC)c1-3` showed a TGI of more than 100 µM.
Turning to `O=C1CCCCC1S(=O)(=O)c1ccccc1` (centres undefined), the TGI was more than 100 µM.
The same measure, in the same setting: with `CC1=NN(C(=O)c2ccccc2O)C(=O)/C1=C/c1ccc(O)cc1` the figure was more than 100 µM; with `COc1cc(OC)c(C/C=C/c2ccccc2)cc1O`, 29.4 µM.
`OCC(O)C(O)C(O)C(O)c1nc2ccc(Cl)cc2[nH]1` (centres undefined) showed a TGI of more than 100 µM.
Take `Nc1ccc(S(=O)(=O)c2ccc(NCN3C(=O)NC(=O)C(=O)C3=O)cc2)cc1`: the concentration for total growth inhibition (TGI) was more than 100 µM.
`CN(C)C(=O)OC1C(=O)N(C)c2ccc(Cl)cc2C2(c3ccccc3)N1C2(Cl)Cl` (centres undefined): the concentration for total growth inhibition (TGI) is more than 100 µM.
The compound `c1cncc(C2N3CCCCC3[C@@H]3c4[nH]c5ccccc5c4CCN23)c1` (some centres undefined) had a TGI of more than 100 µM.
`CC1CCC/C1=C(/I)C(=O)c1ccccc1` (centres undefined) registered a TGI of more than 100 µM.
In turn, `CC(C)=NN/C(=N\S(=O)(=O)c1ccc(Oc2cccc(Cl)c2C#N)cc1)Nc1ccc(Cl)cc1` registered a total growth inhibition concentration (TGI) of more than 100 µM.
For the compound `C[C@@]12CCC(=O)c3coc(c31)C(=O)c1cc3c(cc12)C(=O)C=CC3=O`, the GI50 was more than 1 µM and the concentration for total growth inhibition (TGI) is more than 100 µM.
Turning to `Cc1[nH]c2ccccc2c1CCCO`, the GI50 was more than 100 µM and the TGI is more than 100 µM.
In turn, `O=C1/C(=C/c2ccccc2)CN(C(=O)CCN2CCOCC2)C/C1=C\c1ccccc1` had a TGI of 17.8 µM.
Regarding `COc1cc2c(cc1OC)[C@H](C)N1CCc3cc(OC)c(OC)cc3[C@@H]1C2`, the TGI was more than 100 µM.
For the compound `C=C[C@@H](C)[C@H](NS(=O)(=O)c1ccc(C)cc1)C(=O)OCC`, the TGI was more than 100 µM.
In the case of `COc1ccc2c(c1)c(CC(=O)[Se]C)c(C)n2C(=O)c1ccc(Cl)cc1`, the concentration for 50% growth inhibition (GI50) was more than 0.421 µM and the concentration for total growth inhibition (TGI) was more than 0.921 µM.
As for `CC(NC(=O)C(NC(=O)CNC(=O)OC(C)(C)C)C(C)C)C(=O)Oc1c(Cl)c(Cl)c(Cl)c(Cl)c1Cl` (centres undefined), the TGI was 62.8 µM.
Regarding `O=C(/C=C/Sc1cc(C(F)(F)F)cc(C(F)(F)F)c1)c1ccc(Cl)cc1`, the GI50 was 19.9 µM and the total growth inhibition concentration (TGI) worked out at 37.4 µM.
Turning to `Cc1cc(NC(=O)NC(=O)c2ccccc2NC(=O)C(C)N)ccc1Oc1ncc(Br)cn1` (centres undefined), the TGI stood at 60.8 µM.
`CCOP(=O)(/C=C\n1cc(C)c(=O)[nH]c1=O)OCC` showed a TGI of more than 100 µM.
On to `Cc1cc([N+](=O)[O-])c(NS(=O)(=O)c2cccc(C(=O)O)c2)cc1-c1cccnc1`, for which the GI50 is more than 100 µM and the TGI is more than 100 µM.
For the compound `Cc1ccc(S(=O)(=O)n2c3ccc(Br)cc3c3nc4ccccc4nc32)cc1`, the TGI was more than 100 µM.
`CC1C(=O)N(c2ccccc2)NC12CCCc1ccccc12` (centres undefined) had a total growth inhibition concentration (TGI) of more than 100 µM.
Still for that read-out and setting: the value for `O=c1cc(N2CCCC2)[nH]c(=O)n1Cc1ccccc1` was more than 100 µM; that for `NNC(=O)C1CCC(=O)N1S(=O)(=O)c1ccccc1` (centres undefined) was more than 100 µM.
Same read-out and setting: the value for `ClCCCc1ccccc1C1=NCCc2ccccc21` was more than 100 µM; that for `CSCSSC` was more than 100 µM; that for `O=C(c1ccc(Cl)cc1Cl)C1[C@H]2C(=O)N(c3ccc(Cc4ccc(N5C(=O)[C@@H]6ON(c7ccccc7)C(C(=O)c7ccc(Cl)cc7Cl)[C@@H]6C5=O)cc4)cc3)C(=O)[C@H]2ON1c1ccccc1` (some centres undefined) was more than 50 µM.
`CC(=O)Oc1cc2c(cc1OC(C)=O)OCC(c1ccc(C)cc1)C2` (centres undefined): the TGI was determined as 107 µM.
Still for that read-out and setting: the value for `COc1ccc2c3c1OC1C(=O)C=CC4(CC2)N(C)CCC314` (centres undefined) was more than 100 µM; that for `CC(=C(c1ccccc1)c1ccccc1)N1C(=O)CC(=O)N1C` was more than 100 µM; that for `NC(=O)N/N=C1/CCC(O)CC1CC(=O)O` (centres undefined) was more than 100 µM.
As to `Nc1ncnc2c1N=C(c1ccc3c(c1)OCO3)CC(c1ccc([N+](=O)[O-])cc1)N2` (centres undefined), the GI50 is more than 100 µM and the concentration for total growth inhibition (TGI) was more than 100 µM.
On to `CN1CCN(C(=O)C(C)(C)c2ccc(C(=O)Nc3cn4cc(-c5ccncc5)ccc4n3)cc2)CC1`, for which the GI50 was 0.338 µM and the TGI is 6.42 µM.
In the case of `COC(OC)[C@@H]1OC[C@H](n2cnc3c(N)ncnc32)[C@H]1O`, the TGI was more than 100 µM.
In the case of `CSc1nnc(CCC(=O)Nc2c(C)cccc2C)o1`, the concentration for total growth inhibition (TGI) is more than 100 µM.
Regarding `O=C1OCC2=C1C(c1cccc(Cl)c1)c1cc3c(cc1N2CCO)OCCO3` (centres undefined), the GI50 is 0.796 µM and the TGI is more than 100 µM.
Consider `COc1ccc(/C=C/c2cc(OC)c(OC)c(OC)c2)cc1`, for which the TGI came out at 74.1 µM.
As to `COc1cc(OC)c2nc(C)c3c(c2c1)SCC3`, the total growth inhibition concentration (TGI) was found to be 55 µM.
Take `COc1ccc2c(c1)NC1=C(C(=O)OC1)C2c1cc(OC)c2c(c1)OCO2` (centres undefined): the GI50 is 0.0583 µM and the total growth inhibition concentration (TGI) was more than 100 µM.
With `O=C(Nc1cccc(-n2cc(-c3ccncc3)c(-c3ccc(Cl)c(O)c3)n2)c1)Nc1cc(C(F)(F)F)cc(C(F)(F)F)c1`, the GI50 was 1.04 µM and the total growth inhibition concentration (TGI) came out at 3.08 µM.
Compound `COC(=O)C1(Cc2ccc3c(c2)CCC3)Cc2ccccc2C1O` (centres undefined) showed a TGI of 36.9 µM.
Still for that read-out and setting: the value for `O=C1NNC2(C(=O)N1)c1ccccc1-c1ccccc12` was more than 10 µM.
As to `C=Cc1cncc(C#N)c1CCc1c(C#N)cncc1C=C`, the GI50 is more than 100 µM and the total growth inhibition concentration (TGI) is more than 100 µM.
`OCCO/N=C1\C(c2c(O)[nH]c3ccccc23)=Nc2ccccc21` gave a total growth inhibition concentration (TGI) of more than 100 µM.
Take `COC(C(=O)NN)c1ccccc1` (centres undefined): the TGI was more than 100 µM.
Still for that read-out and setting: the value for `Cc1ccc(OCC2OC(n3cnc4c(Cl)nc(N)nc43)CC2Oc2ccc(C)cc2)cc1` (centres undefined) was more than 81.4 µM; that for `COc1cccc(CCN2CCN(CCCc3ccccc3)CC2)c1` was more than 100 µM.
Same read-out and setting: with `CC(=O)N1CC(C)(C)c2c(C)c(O)c(C)c(C)c21` the figure was more than 100 µM.
For `Cc1ccc(/C(O)=C/c2nc3ccccc3sc2=O)c(C)c1`, the TGI was more than 100 µM.
As for `[Cl][Sn]([c]1ccccc1)([c]1ccccc1)[c]1ccccc1`, the GI50 is 0.262 µM and 0.101 µM and 0.033 µM; the TGI is 0.715 µM and 0.217 µM and 0.153 µM.
`NC(=O)CN(CC(N)=O)C(N)=O` returned a total growth inhibition concentration (TGI) of more than 100 µM.
As to `NCCCC[C@@H]1NC(=O)[C@H]2CCCN2C(=O)[C@H](Cc2ccccc2)CNC(=O)[C@H](Cc2ccccc2)NC1=O`, the GI50 is more than 37.5 µM and the total growth inhibition concentration (TGI) was more than 37.5 µM.
With `C=C1CC2OC(=O)C(=C)C2C(O)C2C(=C)CCC12` (centres undefined), the TGI stood at 24.2 µM.
Regarding `CC1=C(C(=O)Nc2ccc3n[nH]c(C)c3c2)C(c2ccc(C(F)(F)F)cc2)CC(=O)N1` (centres undefined), the GI50 was more than 25 µM and the TGI was more than 25 µM.
For `CC(C)CNc1nc2ncnc(N)c2[nH]1`, the total growth inhibition concentration (TGI) was more than 100 µM.
On to `C[C@H]1CC[C@@]2(NC1)O[C@H]1C[C@H]3[C@@H]4CC[C@H]5C[C@@H](O)CC[C@]5(C)[C@H]4CC[C@]3(C)[C@H]1[C@@H]2C`, for which the GI50 is 28.8 µM; the TGI is 50 µM and > 100 µM.
As to `CCCCOC(=O)N1CCN(/[N+]([O-])=N/Oc2ccc([N+](=O)[O-])cc2[N+](=O)[O-])CC1`, the GI50 is 11.6 µM and the concentration for total growth inhibition (TGI) came to 25 µM.
Compound `COc1cc([C@@H]2c3cc4c(cc3[C@@H](c3c(O)cc(O)c5c3O[C@H](c3ccc(O)c(O)c3)[C@@H](O)C5)[C@H]3COC(=O)[C@H]23)OCO4)cc(OC)c1OC` displayed a concentration for total growth inhibition (TGI) of more than 100 µM.
Still for that read-out and setting: the value for `O=c1cnn(C2OC(CO)C(O)C2O)c(=S)[nH]1` (centres undefined) was more than 100 µM.
